From the supplement of paper PMC5655136
Read counts after selection give these values, which scatter widely.

System: NB7
Assay: fold depletion of shRNA, plasmid library share / infected cells without Dox share (9 days) (ratio); higher = more depleted after infection (more toxic, leaky expression from a Tet-inducible vector; NB7 is a neuroblastoma line without caspase-8)
[1] = shRNA pool: CD95L ORF + CD95L 3'UTR + Venus libraries
[2] = shRNA pool: CD95 ORF + CD95 3'UTR + Venus libraries
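Further: shRNA barcodes quantified by deep sequencing of PCR amplicons from cellular DNA, counts expressed as percent of each subpool, ratio averaged over two biological duplicates.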

Row | Sequence | fold depletion of shRNA [1] | fold depletion of shRNA [2]
1 | GAAACTGGGCTGTACTTTGTA | 0.546 | 
2 | GAAAGAAAGAAGCGTATGACA |  | 1.38
3 | GAAAGAAGCGTATGACACATT |  | 2.22
4 | GAAAGAATGGTGTCAATGAAG |  | 1.16
5 | GAAAGAGGCCAATGCCCCACT | 0.561 | 
6 | GAAAGATTAAGATTATGCTCT |  | 1.19
7 | GAAAGCACAGAAAGGAAAACC |  | 1.61
8 | GAAAGGAAAACCAAGGTTCTC |  | 0.915
9 | GAAAGGAAAGCTAGGGACTGC |  | 2.08
10 | GAAAGGAAGTACAGAAAACAT |  | 0.752
11 | GAAAGTAGCTTTGTGACATGT |  | 0.886
12 | GAAAGTGGCCCATTTAACAGG | 1.61 | 
13 | GAAAGTTCAACTGCTTCGTAA |  | 1.43
14 | GAAAGTTTGTATTAAATGTGA |  | 0.976
15 | GAAATAAACTGCACCCGGACC |  | 0.489
16 | GAAATAATATTTATATTTCTG |  | 0.988
17 | GAAATATCACCAAAAAATACT |  | 1.03
18 | GAAATATCAGTTACTGAACAG |  | 2.06
19 | GAAATCCAAAGCTTGGTCTAG |  | 1.68
20 | GAAATGAAAACATGTAATAAA | 0.619 | 
21 | GAAATGAAATCCAAAGCTTGG |  | 0.982
22 | GAAATTCTAGCCTGGTTTGGA |  | 1.21
23 | GAACACCCCCATCGGCGACGG | 0.699 | 0.657
24 | GAACACTGTGACCCTTGCACC |  | 1.58
25 | GAACAGAAAGTTCAACTGCTT |  | 2.53

Row | Sequence | fold depletion of shRNA [1] | fold depletion of shRNA [2]
26 | GAACATAGAACTCTGGGCTGC | 2.55 | 
27 | GAACATGGAATCATCAAGGAA |  | 1.29
28 | GAACCAAGTGGACCTTGAGAC | 1.19 | 
29 | GAACCACAGCACAGGCCTGTG | 0.511 | 
30 | GAACCACCTAAAGAACTTCCA |  | 1.01
31 | GAACCAGACTGCGTGCCCTGC |  | 0.632
32 | GAACCCATGTTTGCAATCAAA |  | 2.48
33 | GAACCGCATCGAGCTGAAGGG | 1.38 | 0.902
34 | GAACGGCATCAAGGCCAACTT | 0.609 | 0.777
35 | GAACTCCGAGAGTCTACCAGC | 3.85 | 
36 | GAACTCTAAGTATCCCCAGGA | 2.78 | 
37 | GAACTCTGGGCTGCCATGTGA | 1.04 | 
38 | GAACTTCCATTTATGGAGGAT |  | 1.79
39 | GAACTTGGAAGGCCTGCATCA |  | 1.48
40 | GAAGAACGGCATCAAGGCCAA | 2.14 | 0.96
41 | GAAGACACCTATGGAATTGTC | 0.876 | 
42 | GAAGACATGAACCAAGTGGAC | 4 | 
43 | GAAGACTGTTACTACAGTTGA |  | 1.8
44 | GAAGAGAAAGGAAGTACAGAA |  | 1.03
45 | GAAGAGAGGGAACCACAGCAC | 1.82 | 
46 | GAAGAGGGAGAAGCATGAAAA | 1.26 | 
47 | GAAGATAGTTATAAACTGAAG |  | 0.646
48 | GAAGATCATATTTATGTAAAG |  | 0.766
49 | GAAGATGATGAGCTACTGCAC | 1.74 | 
50 | GAAGATGTAGATTGTGTGATG |  | 5.73

Row | Sequence | fold depletion of shRNA [1] | fold depletion of shRNA [2]
51 | GAAGCAAATAGGCCACCCCAG | 0.968 | 
52 | GAAGCAGATACCTGGAACCAC |  | 1.49
53 | GAAGCAGCACGACTTCTTCAA | 2.14 | 2.65
54 | GAAGCATGAAAAAGCAGCTAC | 1.11 | 
55 | GAAGCCAAAATAGATGAGATC |  | 1.11
56 | GAAGCGCGATCACATGGTCCT | 0.568 | 0.582
57 | GAAGCGTATGACACATTGATT |  | 0.858
58 | GAAGCTATGACCTTTTGCTGA |  | 1.82
59 | GAAGCTGATCTGCACCACCGG | 0.651 | 0.644
60 | GAAGGAGTACACAGACAAAGC |  | 1.02
61 | GAAGGCCTGCATCATGATGGC |  | 30.1
62 | GAAGGCCTGGTCAAAGGAGGC | 0.683 | 
63 | GAAGGCTACGTCCAGGAGCGC | 0.488 | 1.4
64 | GAAGGGAAGGAGTACACAGAC |  | 0.573
65 | GAAGGGTGGCCTTGTGATCAA | 0.545 | 
66 | GAAGTACAGAAAACATGCAGA |  | 1.16
67 | GAAGTACATATTAGGAAAATA | 0.509 | 
68 | GAAGTATAAGAAGGGTGGCCT | 1.68 | 
69 | GAAGTGGAAATAAACTGCACC |  | 1.3
70 | GAAGTTCGAGGGCGACACCCT | 1.03 | 0.672
71 | GAATACCAAGTGCAGATGTAA |  | 1.22
72 | GAATATGACGGAAGAACATAG | 1.67 | 
73 | GAATCAATAGAAGAAGCTATG |  | 1.98
74 | GAATCTCCAACTTTAAATCCT |  | 0.496
